In PubChem BioAssay AID1745853 (National Center for Advancing Translational Sciences (NCATS), 2022):
The list shows a part of the results. Shown are side measurements of this screen, not its main read-out; they come without a call.

Tests used:
Test in all cases: Primary Screen for Target Class Profiling of Small Molecule Inhibitors of Methyltransferases
[1] = molecular target: Glycine N-methyltransferase (Homo sapiens) (UniProt Q14749); details: purified enzyme, MTase-Glo SAH luminescence; measured here: GNMT inhibition; at 40 µM; stronger effect = lower value
How it was run: (§1)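 Each enzyme was assayed with SAM and its substrate. SAH formation detected by MTase-Glo luminescence; single-point 40 uM screen[…].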

[2] = molecular target: Guanidinoacetate N-methyltransferase (Homo sapiens) (UniProt Q14353); details: purified enzyme, MTase-Glo SAH luminescence; measured here: GAMT inhibition; at 40 µM; stronger effect = lower value
How it was run: as §1

[3] = molecular target: Histamine N-methyltransferase (Homo sapiens) (UniProt P50135); details: purified enzyme, MTase-Glo SAH luminescence; measured here: HNMT inhibition; at 40 µM; stronger effect = lower value
How it was run: as §1

[4] = molecular target: Nicotinamide N-methyltransferase (Homo sapiens) (UniProt P40261); details: purified enzyme, MTase-Glo SAH luminescence; measured here: NNMT inhibition; at 40 µM; stronger effect = lower value
How it was run: as §1

[5] = molecular target: Phenylethanolamine N-methyltransferase (Homo sapiens) (UniProt P11086); details: purified enzyme, MTase-Glo SAH luminescence; measured here: PNMT inhibition; at 40 µM; stronger effect = lower value
How it was run: as §1
% is scaled to controls: 0 for no effect and ±100 for the full control effect.

Structure (SMILES)	activity change, negative = inhibition [1] [%]	activity change, negative = inhibition [2] [%]	activity change, negative = inhibition [3] [%]	activity change, negative = inhibition [4] [%]	activity change, negative = inhibition [5] [%]
CC1OC(OC2C(OC3C(O[C@H]4CC[C@@]5(C)C(CC[C@]6(C)C5C(=O)CC5=C7CC(C)(C)CC(O)[C@]7(C)CC[C@]56C)C4(C)C)OC(C(=O)O)C(O)C3O)OCC(O)C2O)C(O)C(O)C1O (stereo not given in full)	-2.85	2.05	0.642	-11.7	4.56
C=C(C=O)[C@]1(O)C[C@@]2(C)C(=CC1=O)C=C[C@H](OC(=O)/C=C/C=C/[C@H](C)CC)[C@@H]2C	0	-14.9	-1.52	-24.3	-1.89
CO[C@@H]1[C@H](O)CCC2(CO2)[C@H]1[C@@]1(C)O[C@@H]1CC=C(C)C (stereo not given in full)	0	0.415	-3.99	-11.3	-1.93
CC(C)CNC(=O)c1ccc2c(=O)n(C(C)C)c3nn(CC(=O)Nc4ccc(C(C)C)cc4)c(=O)n3c2c1	5.26	0	10.2	-4.08	5.27
Cc1ccc(C)c(Nc2nn3c(=O)c4ccc(C(=O)NCc5cccnc5)cc4nc3s2)c1	3.54	0.288	6.7	9.62	5.42
CCCCN1C(=O)c2cc(C(=O)Nc3cc(Cl)ccc3OC)nn2CC1(C)C(=O)NC1CCCC1 (stereo not given)	3.46	0.876	0.335	1.68	3.04
CCCCN1C(=O)c2cc(C(=O)Nc3cccc(OC)c3)nn2CC1(C)C(=O)NC1CCCC1 (stereo not given)	7.39	0.733	-6.73	3.51	5.13
CCN1CCN(C2(C(=O)NCCC3CCCCO3)Cc3ccccc3C2)CC1 (stereo not given)	-2.4	-6.82	-1.56	-10.8	-10.7
COC(=O)c1ccc2c(C(=Nc3ccc(N(C)C(=O)CN4CCN(C)CC4)cc3)c3ccccc3)c(O)[nH]c2c1	-0.388	12.8	-2.95	-38.3	-7.46
Cc1ccc([C@@H]2CN(c3cc(N4CCC(O)CC4)ncn3)C[C@H]2N(C)C)cc1	-1.13	2.05	-59.8	-4.04	0.17
C/C=C(\C)C(=O)OC1CC2C(CC=C3CC(OC4CC(OC)C(OC5CC(OC)C(OC6CC(OC)C(OC7CC(OC)C(OC8CC(OC)C(OC9OC(CO)C(O)C(O)C9O)C(C)O8)C(C)O7)C(C)O6)C(C)O5)C(C)O4)CCC32C)C2(O)CCC(C(C)=O)C12C (stereo not given)	3.96	17.9	7.96	5.37	9.61
COc1ccc(-c2nn3c(SCC(=O)Nc4cc(Cl)ccc4OC)nnc3[nH]c2=O)cc1	-4.43	2.56	-6.25	-12.4	-6.47
COCCN1CCCC1c1nc(C2CN(C(=O)c3ncccc3C)C2)no1 (stereo not given)	-6.32	-10.1	-5.23	-11.2	-6.28
CCCN1C(=O)c2cc3occc3n2CC1(C)C(=O)NC1CCCCCC1 (stereo not given)	-4.74	3.6	0.574	4.49	-1.1
CN1C(=O)Cc2cc(S(=O)(=O)NCCN3CCN(c4ccccc4F)CC3)ccc21	4.49	0.222	-1.86	6.03	1.01
O=C(CC1CCN(C(=O)C2CCCCC2)C1)NCc1ccccc1 (stereo not given)	-3.6	-4.16	-1.61	-12.6	-6.61
CC(C)Cn1c(=O)c2cc(F)ccc2n2c(SCC(=O)NCc3ccccc3Cl)nnc12	-2	4.21	3.94	-10.5	-2.51
COc1ccccc1CNC(=O)C1(C)Cn2c(cc3ccccc32)C(=O)N1Cc1ccc(C)cc1 (stereo not given)	-2.35	3.88	1.24	-12.6	-3.86
COc1cccc(CNC(=O)Nc2cccc(-c3ccc(N4CCCCC4)nn3)c2)c1	-19.3	-19.8	-18.8	-27	-32.2
CCc1cc2c(cc3n2CC(C)(C(=O)NC2CCC(C)CC2)N(CCC(C)C)C3=O)s1 (stereo not given)	-6.01	3.98	-1.11	-0.856	-1.84
COc1cc(/C=C/C(=O)NCCn2c(C(F)(F)F)cc3ccccc32)cc(OC)c1OC	3.05	3.91	-2.05	-9.47	3.63
COc1c(CCC(=O)O)cccc1O[C@@H]1O[C@H](CO)[C@@H](O)[C@H](O)[C@H]1O	5.51	2.56	6.78	-9.06	6.13
O=C(CCCc1nnc2n3nc(-c4ccccc4)nc3c3ccccc3n12)N1CCC(N2CCCCC2)CC1	-4.92	-0.6	-60.5	2.98	-3.57
OCC(O)C(c1c[nH]c2ccccc12)c1c[nH]c2ccccc12 (stereo not given)	-9.44	-6.4	2.35	-16.3	-15.4
CC1(C(=O)NC2CCCCCCC2)Cn2c(cc3occc32)C(=O)N1C1CCCC1 (stereo not given)	-1.95	3.57	-0.881	-4.05	-3.77
O=C(Cn1ccc2cc(S(=O)(=O)N3CCCCC3)ccc21)NCCc1ccccc1Cl	2.18	4.72	-6.39	-3.17	-3.39
COc1cccc(C(=O)N2CC3(Cc4ccccc4N(C(C)=O)C3)C2)c1	-5	-4.38	-1.49	-11.7	7.39
CN(C)C(=O)Oc1cccc([N+](C)(C)C)c1	5.74	13.1	11.7	-4.18	3.8
CC(NC(=O)OCc1ccccc1)c1nc2cccnc2n1C1CCCCC1 (stereo not given)	-7.28	-5.45	-2.25	-15.4	-6.36
